The list shows a part of the results. Viral Rep nickase domains cut single-stranded DNA in vitro (3 µM enzyme, 1 h, 37 °C); shown is the middle of each 90-letter strand. Uncut reads are compared with the no-enzyme pool on a log2 scale; uncut sequences lie near 0, cut ones below; no hit call is given. Shares of all reads are compared; where an enzyme cuts many sequences, the uncut ones exceed 0.
Tests used:
Test in all cases: uncleaved DNA left, log2 of reads against the no-enzyme library (log2 ratio); higher = less cleavage (more negative = more Rep cleavage of the k-mer); sequences stand for … in CTCGTCCG…ACCGGAGA
[1] = system: T1, Rep nickase domain of Muscovy duck circovirus
T1 sequence (Rep 1-111, printed without the tag): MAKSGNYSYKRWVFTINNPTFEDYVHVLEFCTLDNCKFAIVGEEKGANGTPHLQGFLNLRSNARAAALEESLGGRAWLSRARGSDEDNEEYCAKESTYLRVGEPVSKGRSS
Experimental: (§1)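 A pool of 90-nt single-stranded DNAs with seven random bases just before the constant AC of the nick site (name = the seven bases) was cut by 3 µM recombinant His6-SUMO-tagged Rep nickase domain (300 nM DNA, 50 mM HEPES pH 8.0, 50 mM NaCl, 1 mM MnCl2, 1 h, 37 °C, three replicates). Uncut DNA was amplified and sequenced.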

[2] = system: T2, Rep nickase domain of banana bunchy top virus
T2 sequence (Rep 1-94, printed without the tag): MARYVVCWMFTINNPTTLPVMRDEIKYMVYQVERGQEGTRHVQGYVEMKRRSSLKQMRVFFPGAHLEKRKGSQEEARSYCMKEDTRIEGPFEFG
Experimental: as §1

[3] = system: T3, Rep nickase domain of cabbage leaf curl virus
T3 sequence (Rep 1-116, printed without the tag): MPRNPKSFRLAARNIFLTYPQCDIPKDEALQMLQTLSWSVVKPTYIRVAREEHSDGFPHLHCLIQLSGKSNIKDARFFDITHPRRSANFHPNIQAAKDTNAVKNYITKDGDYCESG
Experimental: as §1

[4] = system: T4, Rep nickase domain of chickpea chlorotic dwarf virus
T4 sequence (Rep 1-124, printed without the tag): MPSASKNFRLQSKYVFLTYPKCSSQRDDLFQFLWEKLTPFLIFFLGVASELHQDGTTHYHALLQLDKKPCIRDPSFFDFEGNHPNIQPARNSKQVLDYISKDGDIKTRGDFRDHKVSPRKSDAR
Experimental: as §1

[5] = system: T5, Rep nickase domain of faba bean necrotic yellows virus
T5 sequence (Rep 1-98, printed without the tag): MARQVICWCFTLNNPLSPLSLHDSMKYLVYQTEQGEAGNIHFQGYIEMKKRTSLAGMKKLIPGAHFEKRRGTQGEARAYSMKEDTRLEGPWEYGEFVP
Experimental: as §1

[6] = system: T6, Rep nickase domain of maize striate mosaic virus
T6 sequence (Rep 1-117, printed without the tag): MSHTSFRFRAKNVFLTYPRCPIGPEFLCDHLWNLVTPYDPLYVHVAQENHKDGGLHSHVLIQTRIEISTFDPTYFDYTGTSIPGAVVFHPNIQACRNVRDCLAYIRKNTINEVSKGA
Experimental: as §1

[7] = system: T7, Rep nickase domain of porcine circovirus 2
T7 sequence (Rep 2-116, printed without the tag): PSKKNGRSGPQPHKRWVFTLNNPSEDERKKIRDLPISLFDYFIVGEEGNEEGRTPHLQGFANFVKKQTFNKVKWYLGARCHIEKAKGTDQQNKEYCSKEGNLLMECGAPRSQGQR
Experimental: as §1

[8] = system: T8, Rep nickase domain of tomato yellow leaf curl virus
T8 sequence (Rep 1-136, printed without the tag): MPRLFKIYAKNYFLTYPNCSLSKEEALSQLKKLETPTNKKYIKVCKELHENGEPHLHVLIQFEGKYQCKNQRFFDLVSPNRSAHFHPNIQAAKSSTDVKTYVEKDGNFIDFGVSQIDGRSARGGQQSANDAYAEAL
Experimental: as §1

[9] = system: T9, Rep nickase domain of wheat dwarf virus
T9 sequence (Rep 1-137, printed without the tag): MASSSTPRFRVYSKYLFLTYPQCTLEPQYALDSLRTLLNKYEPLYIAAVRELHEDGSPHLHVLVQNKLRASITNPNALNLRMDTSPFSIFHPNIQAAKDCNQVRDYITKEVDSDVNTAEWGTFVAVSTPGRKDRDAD
Experimental: as §1

| Sequence | uncleaved DNA left (log2) [1] | uncleaved DNA left (log2) [2] | uncleaved DNA left (log2) [3] | uncleaved DNA left (log2) [4] | uncleaved DNA left (log2) [5] | uncleaved DNA left (log2) [6] | uncleaved DNA left (log2) [7] | uncleaved DNA left (log2) [8] | uncleaved DNA left (log2) [9] |
| --- | --- | --- | --- | --- | --- | --- | --- | --- | --- |
| GAGCCCC | -0.126 | -0.0539 | 0.164 | 0.657 | -0.184 | 0.856 | -0.0548 | 0.00967 | -0.0165 |
| CGACAAT | -0.0095 | 0.0721 | 0.0766 | 0.499 | 0.0792 | 1.02 | 0.0537 | 0.103 | 0.145 |
| CGGACGT | 0.0254 | -0.0153 | 0.67 | 1.75 | -0.102 | 2.05 | 0.0643 | -0.043 | 0.0503 |
| TGATCTC | 0.0853 | 0.101 | 0.221 | 0.48 | -0.00893 | 1.1 | 0.0411 | 0.0637 | 0.0693 |
| TGATCCT | -0.854 | 0.0607 | 0.245 | -1.1 | -0.0745 | 0.531 | -0.669 | 0.0743 | 0.0781 |
| CAAGTAG | -0.0527 | 0.032 | -0.732 | -0.743 | 0.0587 | -1.24 | 0.152 | 0.0459 | -0.0853 |
| CGGCCAA | 0.0761 | 0.115 | 0.132 | 0.458 | -0.0417 | 0.252 | -0.0184 | 0.162 | 0.13 |
| TGGTGAC | 0.00733 | 0.108 | 0.843 | 1.81 | 0.118 | 2.11 | 0.23 | 0.0203 | 0.19 |
| TGCCTGC | 0.0649 | 0.123 | 0.314 | 0.497 | 0.077 | 0.739 | 0.192 | 0.0637 | 0.0183 |
| TTCCTTC | -0.0646 | -0.00456 | 0.284 | -0.205 | -0.0612 | -0.586 | -0.0843 | -0.0315 | 0.0901 |
| GGCTAAT | -0.242 | 0.0254 | 0.618 | 1.43 | -0.104 | 1.98 | -2.33 | 0.0756 | 0.0681 |
| TCCGACA | -0.0208 | 0.0469 | -0.16 | -0.361 | -0.0144 | -0.118 | -0.126 | 0.0663 | 0.019 |
| TCGTCCA | 0.0666 | 0.121 | 0.227 | -0.812 | 0.0138 | -0.086 | -0.348 | 0.00455 | 0.119 |
| TTAGAAC | 0.0226 | -0.0319 | 0.127 | -0.282 | -0.0599 | -0.248 | 0.0133 | 0.0446 | 0.0819 |
| ACTGAAC | 0.0263 | -0.0553 | -0.0617 | 0.55 | -0.0253 | 0.949 | 0.0457 | -0.112 | 0.0694 |
| CATGAGT | -0.0277 | -0.056 | -0.524 | -0.976 | 0.211 | -1.07 | 0.0672 | 0.0659 | -0.0692 |
| AGGTTCC | 0.00164 | 0.0109 | 0.128 | 0.193 | -0.0606 | 0.633 | -0.181 | -0.0818 | 5.98e-05 |
| CCGTGTC | -0.0631 | -0.164 | -0.192 | -0.193 | -0.0202 | -0.622 | -0.223 | -0.136 | -0.243 |
| CCAACCA | -0.152 | 0.14 | -0.178 | -2.11 | 0.121 | -0.497 | -0.621 | 0.127 | 0.0641 |
| TAAGTAC | -0.0508 | 0.0123 | -0.142 | -1.26 | -0.00755 | -0.554 | 0.036 | 0.0575 | -0.0428 |
| ATTCATA | -0.11 | -0.0929 | -0.172 | -1.32 | -0.0536 | -0.547 | -0.128 | 0.0493 | 0.0236 |
| ATGACGA | 0.0261 | 0.0718 | 0.0689 | 0.0615 | 0.0687 | -0.574 | 0.0832 | 0.0642 | 0.0318 |
| GCCGTTA | -0.0934 | 0.057 | 0.142 | -0.238 | -0.0972 | -0.1 | -0.116 | -0.156 | -0.0859 |
| CAACTGA | 0.0258 | -0.0487 | -0.0426 | 0.268 | 0.0278 | 0.939 | 0.0331 | 0.0431 | -0.0255 |
| TTCGCCG | -0.0742 | -0.242 | -1.03 | -0.354 | -0.151 | -1.14 | -0.134 | -0.174 | -0.264 |
| AGACTAA | 0.0746 | 0.0885 | 0.575 | 1.14 | -0.00052 | 1.45 | 0.137 | 0.137 | 0.113 |
| GTTGGCT | 0.137 | 0.18 | 0.347 | 0.691 | 0.0829 | 0.839 | 0.228 | 0.192 | 0.0771 |
| CTTAGTT | -0.095 | -0.149 | -0.195 | -2.09 | -0.0532 | -0.642 | -0.43 | -0.0197 | -0.00668 |
| GAGTGTC | 0.129 | 0.148 | 0.346 | 0.679 | 0.0382 | 0.872 | -1.92 | 0.158 | 0.0641 |
| CTTGTAC | -0.0402 | -0.0667 | -0.0213 | -0.981 | 0.124 | -1.01 | -0.0357 | 0.0407 | 0.0789 |
